According to PMC12948427 (The Journal of Clinical Investigation, 2025):

Tests used:
[1] = biological target: T1, HGS 1-390 (Homo sapiens, UniProt O14964); test: biochemical; conditions: read-out: inhibition in FP-based HTS
Method: In each assay plate, the DMSO and unlabeled peptides were used as negative and positive controls, respectively. Free tracer wells (180 nM tracer only) were also set up as gain value in each assay plate.

[2] = biological target: T1, HGS 1-390

T1 sequence (O14964 1-390): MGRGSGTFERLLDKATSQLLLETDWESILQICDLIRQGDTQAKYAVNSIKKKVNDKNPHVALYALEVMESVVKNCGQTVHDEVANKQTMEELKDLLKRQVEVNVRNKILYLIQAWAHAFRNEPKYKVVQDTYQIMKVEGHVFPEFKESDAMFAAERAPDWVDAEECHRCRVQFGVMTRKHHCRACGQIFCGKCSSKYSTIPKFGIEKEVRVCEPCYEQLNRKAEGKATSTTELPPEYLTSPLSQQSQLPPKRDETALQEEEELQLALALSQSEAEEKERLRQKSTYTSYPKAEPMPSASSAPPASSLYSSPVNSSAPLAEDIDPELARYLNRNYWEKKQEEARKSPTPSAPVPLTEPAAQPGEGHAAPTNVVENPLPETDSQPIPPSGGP

| Compound | inhibition at 33 µM [1] [%] | decrease in deuterium uptake of HGS 1-390 upon RTB binding [2] [%] | increase in deuterium uptake of HGS 1-390 upon RTB binding [2] [%] |
| --- | --- | --- | --- |
| COc1ccc(N)cn1 [5-amino-2-methoxypyridine] | > 60 |  |  |
| COc1cc(OC)c2ccc(=O)oc2c1 [Citropten, citropten] | > 60 |  |  |
| CC1=NN(c2ccc(C)c(C)c2)C(=O)/C1=N\Nc1cccc(-c2cccc(C(=O)O)c2)c1O [Eltrombopag, eltrombopag] | > 60 |  |  |
| CCOc1ccc2nc3cc(N)ccc3c(N)c2c1 [Ethacridine lactate, ethacridine lactate] | > 60 |  |  |
| CCCC(=O)OC[C@@H](OC(=O)CCC)[C@@H](OC(=O)CCC)[C@H](Cn1c2nc(=O)[nH]c(=O)c-2nc2cc(C)c(C)cc21)OC(=O)CCC [RTB, riboflavin tetrabutyrate] | > 60 | ~10 | 6 |
